This is an account of results in article PMC6212790.

This is one part of the list. At the low end of the ranking the order means little.

The target of this assay is T1, GST-Rok (full length) (UniProt O34857).
T1 sequence: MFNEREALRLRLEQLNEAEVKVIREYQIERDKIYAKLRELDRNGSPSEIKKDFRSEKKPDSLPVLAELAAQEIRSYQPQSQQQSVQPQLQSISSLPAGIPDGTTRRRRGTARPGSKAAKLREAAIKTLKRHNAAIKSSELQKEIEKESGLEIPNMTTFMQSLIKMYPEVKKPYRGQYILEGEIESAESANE
The experiment in a line: protein binding microarray.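 Note: rank score from −0.5 (least bound) to 0.5 (best bound).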 To be noted: Rok is a gene silencer of Bacillus subtilis; high values mean tight binding; most listed sequences are background and not binding sites; double strand, one strand shown.
Turning to AGTGCCGG, the binding signal was -0.106 E-score.

Consider ACAGGGGC, for which the binding signal is -0.328 E-score.

The sequence CTTCAGCC showed a binding signal of -0.32 E-score.

The sequence GCGAGAAA displayed a binding signal of -0.035 E-score.

CCATAAAA gave a binding signal of 0.123 E-score.

As for GAAAGAGC, the binding signal was -0.132 E-score.

With GAAAGCTA, the binding signal was 0.0701 E-score.

As for GGATCTAA, the binding signal is 0.139 E-score.

CATGAATA came in with a binding signal of 0.177 E-score.

TCCCGCGA displayed a binding signal of -0.188 E-score.

With CATACGCC, the binding signal is -0.00911 E-score.

ATCGGCAG registered a binding signal of -0.215 E-score.

Regarding AACGCTAG, the binding signal worked out at 0.127 E-score.

Consider GCATCTTA, for which the binding signal is 0.0934 E-score.

GGCTCCCC: the binding signal is -0.457 E-score.

Sequence GAGGAGAA had a binding signal of -0.0268 E-score.

Turning to CATGGCGC, the binding signal was -0.242 E-score.

As to ACGTCGCC, the binding signal was 0.0709 E-score.

For GGTCAGGA, the binding signal is -0.235 E-score.

For the sequence AATAATAT, the binding signal was found to be 0.311 E-score.

The sequence CCCTACGC returned a binding signal of -0.256 E-score.

ACAGACGC gave a binding signal of 0.0405 E-score.

ACGGAGTG returned a binding signal of -0.198 E-score.

Consider CATGTAGA, for which the binding signal worked out at 0.374 E-score.

Sequence GGCAGTTA displayed a binding signal of 0.091 E-score.

The sequence GTGTGAAC registered a binding signal of 0.0663 E-score.

The sequence ATGACTGG gave a binding signal of -0.0372 E-score.

Consider GCCCTTAA, for which the binding signal was -0.156 E-score.

For AAAATGGG, the binding signal was 0.121 E-score.

The sequence ATGCAACG yielded a binding signal of 0.0719 E-score.

Take CTTAAAAG: the binding signal is -0.119 E-score.

For the sequence TGACTCAA, the binding signal was -0.0649 E-score.

On to AGTGAAAT, for which the binding signal was determined as 0.0768 E-score.

ATAGAGTA yielded a binding signal of 0.197 E-score.

CGGGGCTC returned a binding signal of -0.363 E-score.

Turning to GTGAGTTA, the binding signal turned out to be 0.16 E-score.

Turning to TATAAGCA, the binding signal was determined as 0.171 E-score.

As for AATTATCT, the binding signal worked out at 0.306 E-score.

As to ATAGAGAA, the binding signal stood at 0.227 E-score.

Sequence CAAGGGCA displayed a binding signal of -0.319 E-score.

For the sequence TAAGGTAA, the binding signal was 0.0381 E-score.

CCGTCGCG yielded a binding signal of -0.251 E-score.

As for CCGGTCGC, the binding signal was -0.409 E-score.

TGCCACAA: the binding signal was -0.0807 E-score.

AAATAGAA gave a binding signal of 0.368 E-score.

Consider CCAAGCAG, for which the binding signal was -0.171 E-score.

Regarding ATCGTTTC, the binding signal worked out at 0.14 E-score.

Consider CTCTGCAC, for which the binding signal is -0.243 E-score.

Turning to GTTAACAA, the binding signal turned out to be 0.216 E-score.

AGCCAAAG returned a binding signal of -0.285 E-score.

As to CTGTCCGC, the binding signal was -0.225 E-score.

CCCGAAGA had a binding signal of -0.0531 E-score.

For AGCGGCCC, the binding signal was -0.32 E-score.

On to ACTGCATG, for which the binding signal was 0.0229 E-score.

In turn, CAAAACTG came in with a binding signal of -0.0906 E-score.

Regarding CTATTATC, the binding signal is 0.214 E-score.

Turning to CCAACAGG, the binding signal is -0.215 E-score.

Sequence TGAGGGAA yielded a binding signal of -0.0338 E-score.

For CTTTCGTA, the binding signal is -0.0127 E-score.

For the sequence AGGAAAAC, the binding signal is -0.114 E-score.

Turning to GCCCGCGA, the binding signal was -0.235 E-score.

ATAATGTG returned a binding signal of 0.201 E-score.

Sequence AAGGCCGG registered a binding signal of -0.202 E-score.

As for GAGCGGGC, the binding signal is -0.308 E-score.

The sequence CTACAACA yielded a binding signal of 0.343 E-score.

AGTCCAAG: the binding signal is 0.00586 E-score.

For ATCTGATC, the binding signal came to 0.00876 E-score.

GGTGCCTA: the binding signal was -0.273 E-score.

In turn, CGCTTCAA registered a binding signal of 0.00795 E-score.

In turn, GACCAACC returned a binding signal of -0.00371 E-score.

As to AAGAGCGC, the binding signal is -0.164 E-score.

In turn, AAGCGGGT displayed a binding signal of -0.204 E-score.

The sequence AAGGGATC came in with a binding signal of -0.218 E-score.

Turning to GAGTATCC, the binding signal was -0.139 E-score.

Regarding GTGTACAA, the binding signal was 0.167 E-score.

Sequence GGTCTATA displayed a binding signal of 0.0291 E-score.

The sequence ACTAAACC gave a binding signal of -0.0253 E-score.

In turn, ATCGTACA registered a binding signal of 0.272 E-score.

As for ATGCAAAT, the binding signal is 0.202 E-score.

CCCCTTAG gave a binding signal of -0.286 E-score.

As for AGCGCTGG, the binding signal was -0.124 E-score.

For the sequence GAGCCCAC, the binding signal is -0.301 E-score.

TCGCTACA gave a binding signal of -0.09 E-score.

For the sequence TACTGCTA, the binding signal came out at 0.25 E-score.

Turning to CATGATAG, the binding signal worked out at 0.176 E-score.

The sequence ACCAGCCA had a binding signal of -0.266 E-score.

CTACACAA displayed a binding signal of 0.209 E-score.

CTCTCTTC came in with a binding signal of -0.27 E-score.

With ACCGAAAC, the binding signal worked out at 0.0496 E-score.

With TGCCGCAA, the binding signal is -0.0797 E-score.

As for ACAACTGA, the binding signal worked out at 0.0465 E-score.

In turn, AGTTACGC yielded a binding signal of 0.18 E-score.

CAACAAAA registered a binding signal of 0.0676 E-score.

AAGAACGT yielded a binding signal of -0.0168 E-score.

As to AGGCAAAC, the binding signal is -0.0904 E-score.

Turning to GTGAAGTA, the binding signal came out at 0.0953 E-score.

The sequence AAGCCTCC returned a binding signal of -0.366 E-score.

In the case of CAGCACTG, the binding signal was -0.17 E-score.

In turn, GCGCATGA came in with a binding signal of -0.111 E-score.

GACCATAC displayed a binding signal of 0.04 E-score.

As to GAAATGCC, the binding signal is -0.299 E-score.

Consider ATCACTTC, for which the binding signal worked out at 0.0831 E-score.

For the sequence ACGAATGC, the binding signal was -0.0897 E-score.

For CGGTACTA, the binding signal came to 0.298 E-score.

The sequence CACTATGA gave a binding signal of 0.114 E-score.

The sequence GGACGACA came in with a binding signal of -0.111 E-score.

Sequence AGCTTTCA had a binding signal of -0.2 E-score.

The sequence ACTCATCC had a binding signal of 0.074 E-score.

Turning to AGGACTGC, the binding signal was -0.173 E-score.

AATGCATA came in with a binding signal of 0.152 E-score.

Turning to CACATGCG, the binding signal is -0.129 E-score.

On to CAGGCGAC, for which the binding signal was 0.0107 E-score.

Turning to TAGATGAA, the binding signal was found to be 0.262 E-score.

With CGATACAC, the binding signal amounted to 0.175 E-score.

Turning to TCATAGAA, the binding signal is -0.0162 E-score.

ACATAGTC displayed a binding signal of 0.114 E-score.

Consider CTCCTAGC, for which the binding signal was -0.141 E-score.

ATTTTAAG registered a binding signal of 0.167 E-score.

With AACATGTC, the binding signal is -0.00301 E-score.

The sequence ATATCAAG yielded a binding signal of 0.175 E-score.

As for GCGAACAC, the binding signal is -0.111 E-score.

Consider ACAAGTAA, for which the binding signal is 0.185 E-score.

As to TCAAGACA, the binding signal is -0.127 E-score.

CACGGGGG gave a binding signal of -0.386 E-score.

Take ATCGCCGC: the binding signal stood at 0.0256 E-score.

In turn, TGCCACCA came in with a binding signal of -0.138 E-score.

Consider ATCTTGCG, for which the binding signal is -0.121 E-score.

GCCGACGC yielded a binding signal of -0.193 E-score.

On to ACAGGTTA, for which the binding signal was 0.144 E-score.

The sequence CCGGTAGC yielded a binding signal of 0.184 E-score.

Sequence GTAATTTA returned a binding signal of 0.355 E-score.

In the case of AATACTCT, the binding signal was 0.11 E-score.

Take AGAAAATA: the binding signal came out at 0.328 E-score.

Take GGAGCTCA: the binding signal was -0.164 E-score.

The sequence AACGTGAC showed a binding signal of -0.00743 E-score.

Sequence CTGTCGAC gave a binding signal of -0.0113 E-score.

The sequence TGAATCCA gave a binding signal of -0.0708 E-score.

The sequence CTGTCCCC had a binding signal of -0.157 E-score.

In the case of GTCGTGCA, the binding signal was -0.0147 E-score.

Sequence CTCTGAAG registered a binding signal of -0.245 E-score.

For AGTTATAC, the binding signal was found to be 0.329 E-score.

Consider ATAAGAGA, for which the binding signal is -0.0183 E-score.

On to AGCATCTC, for which the binding signal is -0.022 E-score.

Regarding AAACCGCC, the binding signal was -0.327 E-score.

As to ACAGGTGA, the binding signal was determined as 0.0837 E-score.

For the sequence GCGTCCAA, the binding signal worked out at 0.0719 E-score.

Regarding GAGGGATC, the binding signal is -0.26 E-score.

In turn, AAAAGAAC had a binding signal of -0.132 E-score.

In turn, CTGGGTGA gave a binding signal of -0.274 E-score.

Turning to CGGACCAC, the binding signal was -0.286 E-score.

CGTACTAG came in with a binding signal of 0.0856 E-score.

Turning to ATCCTCGG, the binding signal was -0.218 E-score.

The sequence ATACATGA returned a binding signal of 0.294 E-score.

Turning to ACCAAAGG, the binding signal was -0.0942 E-score.

Take CTGCCTCC: the binding signal is -0.404 E-score.

Consider ACGAGTAG, for which the binding signal was -0.0634 E-score.

With AAATGGCT, the binding signal was -0.116 E-score.

ATCACGCC gave a binding signal of -0.203 E-score.

For AGACCGTG, the binding signal was -0.0895 E-score.

In turn, GTAGGAGA yielded a binding signal of 0.0173 E-score.

CTGCGGGC returned a binding signal of -0.298 E-score.

Turning to GCCTCCGA, the binding signal is -0.337 E-score.

For ACCTAGGA, the binding signal was determined as 0.0434 E-score.

The sequence GTCAATGA registered a binding signal of -0.0227 E-score.

Sequence GCATACAC showed a binding signal of 0.107 E-score.

In the case of ACAGTGCT, the binding signal was -0.243 E-score.

The sequence AATCGTGA returned a binding signal of -0.0107 E-score.

On to TATACCCA, for which the binding signal was 0.279 E-score.

On to TAACTGTA, for which the binding signal was determined as 0.303 E-score.

The sequence CAGTTAAC returned a binding signal of 0.119 E-score.

The sequence ATTCCGCC registered a binding signal of -0.297 E-score.

The sequence CGTTAAAC gave a binding signal of 0.0818 E-score.
